Assay results: patent US12421317B2, “Polynucleotides encoding anti-glucagon-like peptide 1 receptor (GLP1R) antagonist antibodies” (Regeneron Pharmaceuticals, Inc., priority 2020, dated 2025)

Columns and labels:
[1] = test system: mfGLP1R-MMH (Macaca fascicularis GLP1R-MMH); test: SPR (Biacore 4000) binding of captured GLP1R mAbs to mfGLP1R-MMH
Experimental: (§1) The equilibrium dissociation constant (KD) for GLP1R binding to selected GLP1R monoclonal antibodies (mAbs) was determined using a real-time surface plasmon resonance biosensor using a Biacore 4000 instrument. All binding studies were performed in 10 mM HEPES, 150 mM NaCl, 3 mM EDTA, and 0.05% v/v Surfactant Tween-20, pH 7.4 (HBS-ET) running buffer at 25° C. and 37° C. The Biacore CM5 sensor chip surface was first derivatized by amine coupling with human Fc specific mouse mAb to capture different GLP1R mAbs. Different concentrations (100, 25, and 6.25 nM) of the N-terminal region of human GLP1R-MMH (hGLP1R-MMH; SEQ ID NO: 59), human GLP1R expressed with mouse IgG2a Fc (hGLP1R-mFc; SEQ ID NO: 63), an in-line fusion protein of human desA-GLP1 and GLP1R-MMH (hdesA-GLP1_GLP1R-MMH; SEQ ID NO: 62), Macaca fascicularis GLP1R-MMH (mfGLP1R-MMH; SEQ ID NO: 60) or 100 nM mouse GLP1R-MMH (mGLP1R-MMH; SEQ ID NO: 61) prepared in HBS-ET running buffer were injected over the GLP1R mAb captured surface for 150 sec at a flow rate of 30 μL/min and their dissociation in HBS-ET running buffer was monitored for 10 minutes. At the end of each cycle, the GLP1R mAb capture surface was regenerated using a 12 sec injection of 20 mM phosphoric acid.
(§2) The association rate (ka) and dissociation rate (Kd) were determined by fitting the real-time binding sensorgrams to a 1:1 binding model with mass transport limitation using Scrubber 2.0 c curve-fitting software. Binding dissociation equilibrium constant (KD) and dissociative half-life (t½) were calculated from the kinetic rates as: […]

[2] = molecular target: T1, hdesA-GLP1_GLP1R-MMH (in-line fusion protein of human desA-GLP1 and GLP1R-MMH) (Homo sapiens, UniProt P43220); test: SPR (Biacore 4000) binding of captured GLP1R mAbs to hdesA-GLP1_GLP1R-MMH
T1 construct: an in-line fusion protein of human desA-GLP1 and GLP1R-MMH (hdesA-GLP1_GLP1R-MMH)
Experimental: as §1, §2

[3] = test system: GLP1R humanized mice; test: Exendin-4 induced hypoglycemia in GLP1R humanized mice (Example 5); type: in vivo; details: for Blood glucose levels / Percent differences in blood glucose levels from Group 1: Exendin-4 challenge, antibody 25 mg/kg s.c. on Day 0, mean
Experimental: For the study, 35 mice were randomly divided into one group of fourteen mice and three groups of seven mice. On Day 0, the group of fourteen animals (later divided into Groups 1 and 2) were administered subcutaneously (s.c.) with a mIgG2 isotype control antibody (referred to as Isotype control, dose of 25 mg/kg), whereas the other three groups (n=7/group) were each administered s.c. (dose of 25 mg/kg) with mAb36986 (Group 3), mAb37639 (Group 4), or mAb37645 (Group 5). The next day (Day 1), the isotype control administered fourteen animals were randomly divided into two groups (Group 1 and 2) of seven mice each. At 0 minute on Day 1, animals in Group 1 were administered intraperitoneally (i.p.) with saline, whereas animals in Group 2 were administered i.p. with Exendin-4 (dose of 0.01 mg/kg). At the same time point, animals in Groups 3, 4, and 5 were administered i.p. with Exendin-4 (dose of 0.01 mg/kg). For all animals, blood glucose levels were measured with a handheld glucometer immediately before saline or Exendin-4 administration, and 15, 30, 60, and 120 minutes post administration. All animals remained in their assigned groups until the study completion on Day 67. The Exendin-4 challenge performed on Day 1 was repeated on Days 8, 22, 46, and 67. Mean±SEM of percent differences in blood glucose levels from Group 1 at each time point was calculated for each group and shown in Table 16. Statistical analyses were performed by two-way ANOVA followed by Bonferroni post-hoc tests, comparing Groups 2, 3, 4, and 5 to Group 1.

[4] = molecular target: T2, hGLP1R-mFc (human GLP1R expressed with mouse IgG2a Fc) (Homo sapiens, UniProt P43220); test: SPR (Biacore 4000) binding of captured GLP1R mAbs to hGLP1R-mFc
T2 construct: human GLP1R expressed with mouse IgG2a Fc (hGLP1R-mFc)
Experimental: as §1, §2

[5] = molecular target: T3, mGLP1R-MMH (mouse GLP1R-MMH) (Mus musculus, UniProt O35659); test: SPR (Biacore 4000) binding of captured GLP1R mAbs to mGLP1R-MMH
T3 construct: 100 nM mouse GLP1R-MMH (mGLP1R-MMH)
Experimental: as §1, §2

[6] = molecular target: T4, hGLP1R-MMH (N-terminal region of human GLP1R-MMH) (Homo sapiens, UniProt P43220); test: SPR (Biacore 4000) binding of captured GLP1R mAbs to hGLP1R-MMH
T4 construct: the N-terminal region of human GLP1R-MMH (hGLP1R-MMH)
Experimental: as §1, §2

T3 sequence (O35659 with tags, fused parts or gaps): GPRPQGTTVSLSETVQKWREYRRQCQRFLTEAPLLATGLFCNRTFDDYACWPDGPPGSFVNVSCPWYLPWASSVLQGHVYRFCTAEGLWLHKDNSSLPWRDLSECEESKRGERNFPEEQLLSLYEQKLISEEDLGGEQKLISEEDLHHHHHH
T2 sequence (P43220 with tags, fused parts or gaps): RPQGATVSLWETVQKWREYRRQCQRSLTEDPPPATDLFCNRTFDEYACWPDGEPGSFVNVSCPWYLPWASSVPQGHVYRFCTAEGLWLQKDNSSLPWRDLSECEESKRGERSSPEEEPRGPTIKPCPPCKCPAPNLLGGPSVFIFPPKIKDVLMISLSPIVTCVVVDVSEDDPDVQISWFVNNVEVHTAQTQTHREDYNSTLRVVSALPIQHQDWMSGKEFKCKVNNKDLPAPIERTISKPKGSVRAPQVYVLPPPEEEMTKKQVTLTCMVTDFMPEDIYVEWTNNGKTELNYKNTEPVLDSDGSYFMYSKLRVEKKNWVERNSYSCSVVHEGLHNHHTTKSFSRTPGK
T4 sequence (P43220 with tags, fused parts or gaps): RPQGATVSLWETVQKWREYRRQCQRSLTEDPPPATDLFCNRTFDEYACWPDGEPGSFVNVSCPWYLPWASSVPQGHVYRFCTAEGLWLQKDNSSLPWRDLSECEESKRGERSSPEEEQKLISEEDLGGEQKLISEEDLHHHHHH
T1 sequence (P43220 with tags, fused parts or gaps): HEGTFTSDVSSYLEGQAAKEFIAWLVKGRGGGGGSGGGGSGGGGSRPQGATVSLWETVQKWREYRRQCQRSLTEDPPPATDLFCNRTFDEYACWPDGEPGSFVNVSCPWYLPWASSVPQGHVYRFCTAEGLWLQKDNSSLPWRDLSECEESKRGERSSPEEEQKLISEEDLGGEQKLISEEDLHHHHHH

B1: mAb37645: fully human anti-GLP1R antagonist antibody; HCVR/LCVR SEQ ID NOs: 40/48; heavy/light chain 56/58 (antibody)
heavy: QVRLQQWGAGLLKPSETLSLTCAVYGGSFSGYFWSWIRQPPGKGLEWIGEINHGGNTNSNPSLKSRVTISVDTSKNQFSLKLSAVIAADTAVYYCARGQYRSGGGYWYFDLWGRGTLVTVSSASTKGPSVFPLAPCSRSTSESTAALGCLVKDYFPEPVTVSWNSGALTSGVHTFPAVLQSSGLYSLSSVVTVPSSSLGTKTYTCNVDHKPSNTKVDKRV[human IgG4 Fc with S228P (EU numbers) not printed]
light: EIVLTQSPGTLSLSPGERATLSCRASQSISSVHLAWYQQKPGQAPRLLIYGASSRATGIPDRFSGSGSETDFTLTVSRLEPDDFTMYYCQQYGSSPWTFGQGTKVEIKRTVAAPSVFIFPPSDEQLKSGTASVVCLLNNFYPREAKVQWKVDNALQSGNSQESVTEQDSKDSTYSLSSTLTLSKADYEKHKVYACEVTHQGLSSPVTKSFNRGEC
notes: fully human anti-GLP1R antagonist antibody; heavy/light chain 56/58
ka ([1]; 25° C.): 42200 M⁻¹ s⁻¹
kd ([1]; 25° C.): 0.000826 s⁻¹
ka ([1]; 37° C.): 69500 M⁻¹ s⁻¹
kd ([1]; 37° C.): 0.00384 s⁻¹
ka ([2]; 25° C.): 120000 M⁻¹ s⁻¹
kd ([2]; 25° C.): 0.00052 s⁻¹
ka ([2]; 37° C.): 139000 M⁻¹ s⁻¹
kd ([2]; 37° C.): 0.00229 s⁻¹
glucose normalizing effects during Exendin-4 challenges ([3]; 25 mg/kg s.c. on Day 0, challenges on Days 1, 8, 22, 46, 67): did not exhibit glucose normalizing effects
Blood glucose levels ([3]; Day 1, 0 min): 216 mg/dL
Blood glucose levels ([3]; Day 1, 15 min): 195** mg/dL
Percent differences in blood glucose levels from Group 1 ([3]; Day 1, 15 min): −24** %
Blood glucose levels ([3]; Day 1, 30 min): 151**** mg/dL
Percent differences in blood glucose levels from Group 1 ([3]; Day 1, 30 min): −41**** %
Blood glucose levels ([3]; Day 1, 60 min): 140**** mg/dL
Percent differences in blood glucose levels from Group 1 ([3]; Day 1, 60 min): −38**** %
Blood glucose levels ([3]; Day 1, 120 min): 160** mg/dL
Percent differences in blood glucose levels from Group 1 ([3]; Day 1, 120 min): −26** %
Blood glucose levels ([3]; Day 8, 0 min): 204 mg/dL
Percent differences in blood glucose levels from Group 1 ([3]; Day 8, 0 min): −4%
Blood glucose levels ([3]; Day 8, 15 min): 182*** mg/dL
Percent differences in blood glucose levels from Group 1 ([3]; Day 8, 15 min): −30** %
Blood glucose levels ([3]; Day 8, 30 min): 158**** mg/dL
Percent differences in blood glucose levels from Group 1 ([3]; Day 8, 30 min): −36*** %
Blood glucose levels ([3]; Day 8, 60 min): 146**** mg/dL
Percent differences in blood glucose levels from Group 1 ([3]; Day 8, 60 min): −40**** %
Blood glucose levels ([3]; Day 8, 120 min): 182 mg/dL
Percent differences in blood glucose levels from Group 1 ([3]; Day 8, 120 min): −13%
Blood glucose levels ([3]; Day 22, 0 min): 192 mg/dL
Percent differences in blood glucose levels from Group 1 ([3]; Day 22, 0 min): −8%
Blood glucose levels ([3]; Day 22, 15 min): 149**** mg/dL
Percent differences in blood glucose levels from Group 1 ([3]; Day 22, 15 min): −44**** %
Blood glucose levels ([3]; Day 22, 30 min): 121**** mg/dL
Percent differences in blood glucose levels from Group 1 ([3]; Day 22, 30 min): −52**** %
Blood glucose levels ([3]; Day 22, 60 min): 139**** mg/dL
Percent differences in blood glucose levels from Group 1 ([3]; Day 22, 60 min): −42**** %
Blood glucose levels ([3]; Day 22, 120 min): 167 mg/dL
Percent differences in blood glucose levels from Group 1 ([3]; Day 22, 120 min): −20* %
Blood glucose levels ([3]; Day 46, 0 min): 184 mg/dL
Percent differences in blood glucose levels from Group 1 ([3]; Day 46, 0 min): 1%
Blood glucose levels ([3]; Day 46, 15 min): 167*** mg/dL
Percent differences in blood glucose levels from Group 1 ([3]; Day 46, 15 min): −32** %
Blood glucose levels ([3]; Day 46, 30 min): 138**** mg/dL
Percent differences in blood glucose levels from Group 1 ([3]; Day 46, 30 min): −45*** %
Blood glucose levels ([3]; Day 46, 60 min): 144**** mg/dL
Percent differences in blood glucose levels from Group 1 ([3]; Day 46, 60 min): −36** %
Blood glucose levels ([3]; Day 46, 120 min): 184 mg/dL
Percent differences in blood glucose levels from Group 1 ([3]; Day 46, 120 min): −1%
Blood glucose levels ([3]; Day 67, 0 min): 195 mg/dL
Percent differences in blood glucose levels from Group 1 ([3]; Day 67, 0 min): 0%
Blood glucose levels ([3]; Day 67, 15 min): 153**** mg/dL
Percent differences in blood glucose levels from Group 1 ([3]; Day 67, 15 min): −42*** %
Blood glucose levels ([3]; Day 67, 30 min): 144**** mg/dL
Percent differences in blood glucose levels from Group 1 ([3]; Day 67, 30 min): −45*** %
Blood glucose levels ([3]; Day 67, 60 min): 144**** mg/dL
Percent differences in blood glucose levels from Group 1 ([3]; Day 67, 60 min): −39** %
Blood glucose levels ([3]; Day 67, 120 min): 168* mg/dL
Percent differences in blood glucose levels from Group 1 ([3]; Day 67, 120 min): −26%
ka ([4]; 25° C.): 128000 M⁻¹ s⁻¹
kd ([4]; 25° C.): 0.000183 s⁻¹
ka ([4]; 37° C.): 251000 M⁻¹ s⁻¹
kd ([4]; 37° C.): 0.00065 s⁻¹
ka ([5]; 25° C.): 56900 M⁻¹ s⁻¹
kd ([5]; 25° C.): 0.000617 s⁻¹
ka ([5]; 37° C.): 83600 M⁻¹ s⁻¹
kd ([5]; 37° C.): 0.00249 s⁻¹
ka ([6]; 25° C.): 152000 M⁻¹ s⁻¹
kd ([6]; 25° C.): 0.000866 s⁻¹
ka ([6]; 37° C.): 195000 M⁻¹ s⁻¹
kd ([6]; 37° C.): 0.00349 s⁻¹

Marks after values point to notes of the source that are not given here.
